Like-named read-outs stand apart in the source and are kept apart here.
Assays:
[1] = test system: overall appearance associated genes; test: Effect on overall appearance associated genes
[2] = test system: eigengene for the "Cell Adhesion and Junction" theme; test: Eigengene of younger-appearance / Cell Adhesion and Junction co-expression module, treated cultured human keratinocytes

| Substance | anti-aging benefit on the overall appearance associated genes [1] | effect on eigengene, Cell Adhesion and Junction theme (FIG. 4) [2] | effect on eigengene, Cell Adhesion and Junction theme (FIG. 4) ([2]; listed as Pal-KTTS) |
| --- | --- | --- | --- |
| palmitoyl-lysine-threonine [Pal-KT] | strong anti-aging benefit | significantly up-regulate |  |
| palmitoyl-lysine-threonine-threonine-lysine-serine [Pal-KTTKS] |  | significantly up-regulate | significantly increase |
